Assay results taken from the antibiotic and cytotoxicity screens of Wong et al. (2023).
This is one part of the list.

Tests used:
[1] = system: HSkMC (human skeletal muscle cells); assay: cytotoxicity call (relative viability < 0.9); settings: 10 µM
[2] = system: HepG2; assay: cytotoxicity call (relative viability < 0.9); settings: 10 µM
[3] = system: S. aureus RN4220; assay: growth inhibition call (relative growth <= 0.2); settings: 50 µM

Row | Compound | cytotoxicity call [1] | cytotoxicity call [2] | growth inhibition call [3]
1 | C[C@H](CO)N1C[C@H](C)[C@@H](CN(C)S(=O)(=O)c2cn(C)cn2)Oc2ccc(NC(=O)Nc3ccc4c(c3)OCO4)cc2C1=O | inactive | inactive | inactive
2 | C[C@H](CO)N1C[C@H](C)[C@H](CN(C)S(C)(=O)=O)Oc2cc(-c3ccccc3F)ccc2S1(=O)=O | inactive | inactive | inactive
3 | C[C@@H]1CN([C@@H](C)CO)C(=O)c2cc(NS(=O)(=O)c3ccc(Cl)cc3)ccc2O[C@H]1CN(C)Cc1ccc(Cl)c(Cl)c1 | active | active | inactive
4 | C=CCCCCCCCCCCCC(O)CC(O)CO (stereo not given) | inactive | inactive | inactive
5 | COc1ccc(S(=O)(=O)N[C@@H]2CC[C@H](CCNC(=O)CN3CCOCC3)O[C@H]2CO)cc1 | inactive | inactive | inactive
6 | NS(=O)(=O)OC[C@H]1C[C@@H](Nc2ccnc3cc(-c4cccc(SC(F)(F)F)c4)nn23)[C@H](O)[C@@H]1O | active | active | inactive
7 | c1ccc2cc3nc4c(ccc5ccccc54)nc3cc2c1 | inactive | inactive | inactive
8 | C[C@H](CO)N1C[C@H](C)[C@H](CN(C)Cc2ccc(-c3ccccc3)cc2)Oc2ccc(NS(=O)(=O)c3ccccc3)cc2CC1=O | inactive | active | inactive
9 | Cc1noc(C)c1NC(=O)Nc1ccc2c(c1)CC(=O)N([C@H](C)CO)C[C@@H](C)[C@@H](CN(C)C(=O)NC(C)C)O2 | inactive | inactive | inactive
10 | C[C@@H]1CCCCO[C@H](CN(C)C(=O)Nc2ccc3c(c2)OCO3)[C@H](C)CN([C@H](C)CO)C(=O)c2cc(NS(=O)(=O)c3ccccc3)ccc2O1 | inactive | inactive | inactive
11 | C[C@H](CO)N1C[C@H](C)[C@H](CN(C)C(=O)Cc2ccncc2)Oc2cc(C#CC3CCCC3)ccc2S1(=O)=O | inactive | inactive | inactive
12 | C[C@@H]1CCCCO[C@H](CN(C)C(=O)Nc2ccccc2)[C@H](C)CN([C@@H](C)CO)C(=O)c2cc(NC(=O)Nc3ccc(C(F)(F)F)cc3)ccc2O1 | inactive | inactive | inactive
13 | CC(C)(C)C(=O)C[n+]1cccc(C(N)=O)c1 | inactive | inactive | inactive
14 | CCc1nc2ccc(C(=O)N3CCN(S(=O)(=O)CC)CC3)cn2c1N(CCC(C)C)CCN(C)C | inactive | inactive | inactive
15 | C[C@@H]1CN([C@@H](C)CO)C(=O)c2cc(NC(=O)Nc3ccc(C(F)(F)F)cc3)ccc2O[C@H]1CN(C)C(=O)Nc1ccc(F)cc1 | inactive | inactive | inactive
16 | CN(C)C(=O)C[C@@H]1CC[C@H]2[C@@H](COC[C@H](O)CN2S(=O)(=O)c2ccccc2)O1 | inactive | inactive | inactive
17 | COc1ccc(S(=O)(=O)N(C)C[C@@H]2OCCCC[C@H](C)Oc3ccc(NC(=O)NC4CCCCC4)cc3C(=O)N([C@H](C)CO)C[C@H]2C)cc1 | inactive | inactive | inactive
18 | C[C@@H]1CN([C@@H](C)CO)C(=O)Cc2cc(NC(=O)Nc3cccc4ccccc34)ccc2O[C@@H]1CN(C)Cc1ccc(C(=O)Nc2ccccc2N)cc1 | inactive | inactive | inactive
19 | C[C@H]1CN([C@@H](C)CO)C(=O)Cc2cc(NC(=O)Cn3cnnn3)ccc2O[C@@H]1CN(C)Cc1ccc(C(=O)O)cc1 | inactive | inactive | inactive
20 | C[C@@H]1CN([C@@H](C)CO)C(=O)c2cc(NS(=O)(=O)c3ccc(Cl)cc3)ccc2O[C@H]1CN(C)Cc1ccc(C(F)(F)F)cc1 | inactive | inactive | inactive
21 | NNC(=O)c1nnn(-c2nonc2N)c1CN1CCCCC1 | inactive | inactive | inactive
22 | C[C@@H]1CN([C@@H](C)CO)C(=O)Cc2cc(NC(=O)Nc3cccc4ccccc34)ccc2O[C@@H]1CN(C)Cc1ccc(-c2ccccc2)cc1 | inactive | inactive | inactive
23 | CCc1nc2[nH]c(C)cc(=O)n2n1 | inactive | inactive | inactive
24 | COc1ccc(CN(C)C[C@H]2Oc3ccc(NS(C)(=O)=O)cc3CC(=O)N([C@H](C)CO)C[C@H]2C)cc1 | inactive | inactive | inactive
25 | CCOC(=O)c1ccc(N)cc1 | inactive | inactive | inactive
26 | C[C@H]1CN([C@@H](C)CO)C(=O)c2c(c3ccccc3n2C)-c2ccccc2CO[C@@H]1CN(C)Cc1ccc2c(c1)OCCN2C | inactive | active | inactive
27 | Cc1noc(C)c1NC(=O)N1C[C@H](O)COC[C@@H]2O[C@H](CC(=O)N[C@H]3CCN(Cc4ccccc4)C3)CC[C@H]21 | inactive | inactive | inactive
28 | C[C@H](CO)N1C[C@H](C)[C@H](CN(C)S(=O)(=O)c2cccs2)Oc2ccc(NC(=O)Nc3cccc4ccccc34)cc2C1=O | inactive | inactive | inactive

Row | Compound | cytotoxicity call [1] | cytotoxicity call [2] | growth inhibition call [3]
29 | C[C@@H]1CN([C@@H](C)CO)C(=O)Cc2cc(NS(=O)(=O)c3ccc(F)cc3)ccc2O[C@@H]1CN(C)S(=O)(=O)c1cccs1 | inactive | inactive | inactive
30 | COc1ccc2c3c([nH]c2c1)[C@H](CO)N(C[C@]13CN(C1)C(=O)Cc1cccnc1)S(=O)(=O)c1ccc(cc1)C | inactive | inactive | inactive
31 | C[C@@H]1CCCCO[C@H](CN(C)C(=O)C2CCCCC2)[C@H](C)CN([C@@H](C)CO)C(=O)c2cc(NC(=O)Nc3ccccc3)ccc2O1 | inactive | inactive | inactive
32 | CC(=O)NCCCC[C@@H]1NC(=O)[C@@H]2C[C@H](C(=O)NCCCCCN)[C@H](c3cccc(OCCO)c3)N2C1=O | inactive | inactive | inactive
33 | COc1ccc(NC(=O)N(C)C[C@@H]2OCCCC[C@H](C)Oc3ccc(NC(=O)Nc4ccc(C(F)(F)F)cc4)cc3C(=O)N([C@@H](C)CO)C[C@H]2C)cc1 | inactive | inactive | inactive
34 | COc1ccc(NC(=O)Nc2ccc3c(c2)C(=O)N([C@@H](C)CO)C[C@@H](C)[C@@H](CN(C)C(=O)Nc2ccc(C(F)(F)F)cc2)OCCCC[C@@H](C)O3)cc1 | inactive | inactive | inactive
35 | C[C@H](CO)N1C[C@H](C)[C@@H](CN(C)C(=O)Nc2ccc3c(c2)OCO3)OCCCC[C@H](C)Oc2ccc(NC(=O)CCC(F)(F)F)cc2C1=O | inactive | inactive | inactive
36 | CO[C@@H]1CN(C)C(=O)c2cc(NC(=O)C3CCOCC3)ccc2OC[C@@H](C)N(Cc2cccnc2)C[C@H]1C | inactive | inactive | inactive
37 | Cc1ccc(S[C@]2(C(=O)NCC(C)C)CC(=O)N(Cc3ccccc3)[C@@H]2c2ccc(CO)cc2)cc1 | inactive | inactive | inactive
38 | COc1ccc(CN(C)C[C@@H]2Oc3ccc(NC(=O)CCCCCC(=O)Nc4ccccc4N)cc3CC(=O)N([C@H](C)CO)C[C@H]2C)cc1 | inactive | inactive | inactive
39 | C[C@@H]1CN([C@@H](C)CO)C(=O)c2cc(NC(=O)Nc3cccc4ccccc34)ccc2O[C@@H](C)CCCCO[C@@H]1CN(C)C(=O)Nc1ccccc1 | inactive | inactive | inactive
40 | COc1ccc(CN(C)C[C@H]2Oc3ccc(NC(=O)C4CC4)cc3CC(=O)N([C@H](C)CO)C[C@H]2C)cc1 | inactive | inactive | inactive
41 | C[C@@H]1CN([C@H](C)CO)C(=O)c2cc(NS(=O)(=O)c3ccccc3)ccc2O[C@@H]1CN(C)C(=O)Nc1cccc2ccccc12 | inactive | active | inactive
42 | C[C@@H]1CCCCO[C@H](CN(C)C(=O)c2ccccc2)[C@@H](C)CN([C@@H](C)CO)C(=O)c2cc(NS(=O)(=O)c3ccccc3)ccc2O1 | inactive | inactive | inactive
43 | C[C@@H]1CN([C@H](C)CO)S(=O)(=O)c2ccc(C#Cc3cccc(F)c3)cc2O[C@@H]1CN(C)C(=O)CN1CCOCC1 | inactive | inactive | inactive
44 | CN1C2=CC(=O)/C(=N\NC(N)=O)C=C2C[C@H]1S(=O)(=O)O | inactive | inactive | inactive
45 | O=C1N[C@H](Cc2ccccc2)COC(=O)[C@@H](Cc2ccc(F)cc2)CCC=CC[C@@H]1CC(=O)N(CCO)Cc1ccccc1 | inactive | inactive | inactive
46 | C[C@@H]1CCCCO[C@@H](CN(C)C(=O)CCCN(C)C)[C@H](C)CN([C@@H](C)CO)C(=O)c2cc(NC(=O)Nc3ccc(F)cc3)ccc2O1 | inactive | inactive | inactive
47 | C[C@H]1CN([C@@H](C)CO)C(=O)Cc2cc(NC(=O)Cn3cnnn3)ccc2O[C@@H]1CN(C)S(C)(=O)=O | inactive | inactive | inactive
48 | CCCN(C)C[C@@H]1OCCCC[C@@H](C)Oc2ccc(NC(=O)CCCCCC(=O)Nc3ccccc3N)cc2C(=O)N([C@H](C)CO)C[C@@H]1C | inactive | inactive | inactive
49 | C[C@@H]1CCCCO[C@H](CN(C)S(C)(=O)=O)[C@H](C)CN([C@@H](C)CO)C(=O)c2cc(NS(=O)(=O)c3cccs3)ccc2O1 | inactive | inactive | inactive
50 | C[C@@H]1CCCCO[C@H](CN(C)C(=O)c2ccccc2)[C@@H](C)CN([C@H](C)CO)C(=O)c2cc(NC(=O)C3CCCCC3)ccc2O1 | inactive | inactive | inactive
51 | CCS(=O)(=O)N1C[C@]2(CCN(CC2)Cc2cccc(c2)OC)c2c(n(c3cc(ccc23)OC)C)[C@H]1CO | inactive | inactive | inactive
52 | CCCCC(CC)COC(=O)c1ccccc1O (stereo not given) | inactive | inactive | inactive
53 | CCS(=O)(=O)Nc1ccc2c(c1)C(=O)N(C)[C@H]1CC[C@H](CC(=O)NCc3ccc(OC)cc3)O[C@H]1CO2 | inactive | inactive | inactive
54 | N#CCC1CCNCC1 | inactive | inactive | inactive
55 | CC(C)NC(=O)Nc1ccc2c(c1)C(=O)N([C@@H](C)CO)C[C@@H](C)[C@@H](CN(C)S(=O)(=O)c1cn(C)cn1)O2 | inactive | inactive | inactive
